Measurements from patent publication US20250114416A1, “ANTIVIRAL C[…] EXTRACT AND STEROID COMPOUND AS ACTIVE INGREDIENTS” (priority 2022, published 2025).

Tested on: Influenza A virus
Details: examples using ginseng (Table 1), non-treated control = 100

## C[C@@H]1C[C@H]2[C@@H]3CCC4=CC(=O)C=C[C@]4(C)[C@@]3(F)[C@@H](O)C[C@]2(C)[C@@]1(O)C(=O)CO [Comparative Example 4, Dexamethasone]
  Relative virus titer Influenza A virus: 102 ± 1.9

## C[C@]12C=CC(=O)C=C1CC[C@@H]1[C@@H]2[C@@H](O)C[C@@]2(C)[C@H]1CC[C@]2(O)C(=O)CO [Comparative Example 6, Prednisolone]
  Relative virus titer Influenza A virus: 103 ± 1.9

## C[C@]12C=CC(=O)C=C1CC[C@H]1[C@@H]3C[C@@H](O)[C@](O)(C(=O)CO)[C@@]3(C)C[C@H](O)[C@@]12F [Comparative Example 7, Triamcinolone]
  Relative virus titer Influenza A virus: 103 ± 1.9
